Experimental data: PubChem BioAssay AID1508623 (National Center for Advancing Translational Sciences (NCATS), 2021)
Out of some 48,000 compounds screened, about 450 (0.94%) were called active. About 19% were inconclusive and are not listed. The call rests on the fitted dose curve; in most records, active means well fitted inhibition curve with a large enough effect; inconclusive means small, poorly fitted or top-dose-only effect; inactive means no such curve, though single readings can be large or run the other way. This is one part of the list.

Assay: Primary qHTS for Identification of Small Molecule Inhibitors of Huntingtin Promoter Activity; further: nearly all actives have a fitted effect of over 50% in size
Settings: HEK293 HTT promoter firefly luciferase reporter (activity 0% = vehicle and -100% = no light), 24 h; series mostly up to 57.5 µM; activity change, negative = inhibition: at the top concentration
Method in brief: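 Luminescence was read after Dual-Glo reagent and a 10 min room-temperature incubation. Values were normalized to vehicle (0% activity) and zero RLU (-100% activity). Reporter HEK293 cells had been exposed to compounds (up to 57.5 uM final) for 24 h.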

Activity change, negative = inhibition, inactive:
O=[N+]([O-])c1nccn1CO[C@@H](CO)[C@H](O)CO -8.75%, CN(C)c1ccc(C(CNS(=O)(=O)c2ccc(F)cc2)N2CCc3ccccc32)cc1 (stereo unspecified) -21.6%, CC(C)CCN(Cc1ccco1)C(=O)Cn1ncc2c([nH]c3ccccc32)c1=O -27.4%, O=c1c(N2CCc3ccccc3C2)csc2ccc(Br)cc12 11%, Cc1cccc(C(=O)Nc2ccc(N3CCN(c4ccc(F)cc4)CC3)c(C(=O)O)c2)c1 1.21%, Cc1ccn2c(Nc3ccc4c(c3)OCCO4)c(-c3ccc(C)s3)nc2c1 30%, Cc1ccc2nc(SCC(=O)Nc3ccc(C#N)cc3)[nH]c2c1 -13.7%, COc1ccc(OC)c(NC(=O)CCc2nc(-c3ccc(C)cc3)no2)c1 -22.4%, Cc1c(C(=O)N2CCC(C)CC2)c(S(=O)(=O)N2CCN(c3cccc(Cl)c3)CC2)c(C)n1C -23.4%, COc1ccc(S(=O)(=O)c2cn(Cc3ccccc3)c3cc(F)c(F)cc3c2=O)cc1 -13.4%, CN1C(=O)c2[nH]nc(-c3ccc(F)cc3)c2C1c1ccccn1 (stereo unspecified) -6.51%, COc1ccc(Nc2cc(C(=O)NCc3ccccc3)c3ccccc3n2)cc1OC 0%, O=c1c(S(=O)(=O)c2ccc(Cl)cc2)cn(Cc2ccc(F)cc2)c2ccc(F)cc12 -22.6%, CCCCn1c(SCC(=O)Nc2ccc(F)cc2)nc2c(sc3ccccc32)c1=O -12.6%, C[C@H](NC(CCc1ccccc1)C(=O)O)C(=O)N1CCC[C@H]1C(=O)O (stereo partly specified) -26.7%, CC(C)c1ccc(NC(=O)Cn2nnc(C(=O)NCc3cccs3)c2N)cc1 -8.94%, O=C(CSc1nnc(-c2ccc(Br)cc2)n1-c1ccccc1)c1ccccc1 -10.2%, CNC(=O)CSc1nnc(NC(=O)Nc2ccccc2)s1 23.2%, Cc1ccc2oc3c(c(=O)c2c1)C(c1ccc(OCC(N)=O)cc1)N(Cc1ccc2c(c1)OCO2)C3=O (stereo unspecified) 3.62%, COc1ccc(NC(=O)C(=O)NCC2(c3ccccc3)CCCC2)c(OC)c1 -3.14%, CCOc1ccc(/C=C/c2nc(C#N)c(N3CCN(c4ccccc4)CC3)o2)cc1 -1.89%, COc1ccc(CNC(=O)CN2C(=O)COc3ccc(S(=O)(=O)N4CCOCC4)cc32)cc1 -3.94%, CCOCN(C(=O)Cn1cnc2cc(C)c(C)cc21)c1c(C)cccc1CC -12.1%, CC1CCCCN1C(=O)CSc1nnc(-c2ccccc2Cl)o1 (stereo unspecified) 10.2%, COc1ccccc1CNC(=O)Cn1c(=O)ccc2cc(S(=O)(=O)N3CCCC3)ccc21 7.56%, COc1ccc(-c2cn3nc(N4CCC(C(=O)Nc5ccc(C)cc5)CC4)sc3n2)cc1 2.32%, COc1ccc(Br)cc1CNC(=O)C1COc2ccccc2C1 (stereo unspecified) 23.8%, O=C(c1ccc(CS(=O)(=O)c2c(Cl)cccc2Cl)o1)N1CCN(c2ccccc2)CC1 -36.2%, Cc1ccc(-n2c(SCC(N)=O)nc3c([nH]c4ccccc43)c2=O)cc1 -13.6%, Cc1cncn1CCc1nc2c3ccccc3nc(SCC(=O)Nc3ccccc3F)n2n1 -4.11%, Cc1ccc(Cl)cc1N1CCN(c2ncnc3onc(-c4ccc(F)cc4)c23)CC1 -0.0359%, CCOC(=O)N1CCN(C(=O)CN(c2cc(C)ccc2OC)S(=O)(=O)c2ccc(C)cc2)CC1 -16.1%, CC(C)(C)c1ccc(-c2noc(CCC(=O)Nc3cccc(Cl)c3)n2)cc1 -85.5%, CCc1ccc(-n2nc(C)c3c(C(=O)Nc4cc(C)ccc4C)cc(C)nc32)cc1 -11.1%, CCOc1ccccc1CNC(=O)C1CCCN(S(=O)(=O)c2ccc3c(ccn3C)c2)C1 (stereo unspecified) -0.615%, CC1CCN(S(=O)(=O)c2nnc(NC(=O)c3cccc(F)c3)s2)CC1 -29.2%, COC(=O)c1sc2cccc(F)c2c1S(=O)(=O)N1CCN(c2ccc(C)cc2C)CC1 -9.04%, COc1nc(-c2ccc(C)cc2)ccc1-c1noc(-c2ccc(C(C)(C)C)cc2)n1 -11.4%, COc1ccccc1N1CCN(c2cc(C)nc3nc(-c4ccc(Cl)cc4)nn23)CC1 -20.6%, COc1ccc(OC)c(S(=O)(=O)NCCc2csc3nc(-c4ccccc4)nn23)c1 -3.4%, Cc1cccc(N2CCN(C(=O)c3ccc4c(c3)c(C)c(C)n4C)CC2C)c1 (stereo unspecified) -1.49%, Cc1ccc(NC(=O)c2cc(S(=O)(=O)N3CCCC3)c[nH]2)c(C)c1 -6.88%, CCOc1ccc2oc(=O)cc(CN3CCN(c4ccc(Cl)cc4)CC3)c2c1 -11.7%, CC(=O)N1CCc2cc(Br)cc(S(=O)(=O)CCC(=O)Nc3ccc(C)cc3Cl)c21 -9.57%, CCc1c(C)c2ccc(O)c(CN3CCN(c4ccccc4)CC3)c2oc1=O -0.914%, CCOC(=O)c1c(NC(=O)COc2ccc(Cl)cc2C)sc(C(C)=O)c1C 4.72%, CCN1CCN(c2cc(C)c3cc(NC(=O)c4ccccc4F)ccc3n2)CC1 22.2%, CCc1cccc(C)c1NC(=O)CN(C)S(=O)(=O)c1cccc2nsnc12 -29.6%, Cc1ccc(N2CCN(c3nc4c(S(=O)(=O)c5ccc(C)c(C)c5)nnn4c4ccccc34)CC2)c(C)c1 5.37%, Cc1c(C(=O)N(Cc2ccc(N(C)C)cc2)CC2CCCO2)oc2ccc(Br)cc12 (stereo unspecified) -10.6%, Cc1ccc(S(=O)(=O)c2cn(C)c3cc(N4CCCCC4)c(F)cc3c2=O)cc1 -11.9%, COc1ccc(C)cc1NC(=O)N1CCC(CN2CCC(C)CC2)CC1 -4.32%, COC(=O)c1ccccc1NC(=O)Cn1c(=O)n(-c2cccc(C(F)(F)F)c2)c(=O)c2c(C)c(C)sc21 -6.09%, COCCCNC(=O)c1ccc(Cn2c(SCc3cccc(C)c3)nc3cccnc32)cc1 -11.4%, Cc1ccc(S(=O)(=O)NCC2CCC(C(=O)NCCc3ccc(Cl)cc3)CC2)cc1 (stereo unspecified) -0.369%, CCOC(=O)C1CCCN(C(=O)c2nn(-c3ccc(C)cc3)c(=O)c3c2c2ccccc2n3C)C1 (stereo unspecified) -11.3%, CCCn1c(CCCNC(=O)c2ccccc2OC)nc2ccccc21 -10.1%, O=C(/C=C\c1ccccc1)NC1CC(=O)N(c2ccccc2)C1 (stereo unspecified) -26.8%, CC(=O)CCCCn1c(=O)c2c(ncn2C)n(C)c1=O -2.34%, CCN(Cc1ccccc1)C(=O)c1sc2nc3n(c(=O)c2c1C)CCCC3 -18%, CCN(CC)CCCNC(=O)c1nn(-c2ccc(C)cc2)c(=O)c2c1c1ccccc1n2C -8.31%, COc1ccccc1CNC(=O)c1cc2c(s1)-c1ccccc1OC2 10.2%, COCCNC(=O)Cn1c(=O)n(CCCCCC(=O)Nc2ccccc2)c(=O)c2sccc21 18.1%, COc1ccc(/C=C(\C#N)c2nc3ccccc3n2C)c(OC)c1 65.8%, O=S(=O)(c1ccccc1)c1nnn2c1nc(NCc1ccccc1)c1sccc12 2.46%, Cc1ccc(Cl)cc1N1CCN(C(=O)CN2C(=O)CSc3c2c(C)nn3-c2ccccc2)CC1 -7.95%, COc1cccc(NC(=O)c2cnc(SCC(=O)N3CCOCC3)n(C)c2=O)c1 20.2%, CCc1ccc2c(c1)-c1ccccc1S(=O)(=O)N2CC(=O)N1CCCCC1 26.4%, COc1ccc(-c2cn3c(n2)sc2cc(C(=O)NCCc4ccc(OC)cc4OC)ccc23)cc1 -11%, CN(C/C=C/c1ccccc1)Cc1cccc2ccccc12 -7.51%, CCc1ccc(CNC(=O)c2c(C)oc3ncn(CC(C)C)c(=O)c23)cc1 0%, COc1cc(Cl)c(C)cc1NC(=O)Cn1ncc2c3ccccc3n(Cc3ccccc3)c2c1=O -8.44%, CCN(CC)CCCNC(=O)CN1N=C(c2ccc(OC)cc2)CCC1=O 4.47%, CCOCCCNC(=O)c1c(NC(=O)Cc2coc3ccc(C)cc23)sc2c1CCC2 -19.7%, CC(C)c1ccc(OCC(O)CN2CCN(c3ccc(F)cc3)CC2)cc1 (stereo unspecified) -29.4%, CCCCNS(=O)(=O)c1ccc2nc(-c3cccnc3)cc(C(=O)NCCOC)c2c1 -10.7%, CCC1CCCCN1C(=O)Cn1c(=O)cc(C(F)(F)F)c2c(C)nn(C)c21 (stereo unspecified) -5.45%, O=C1c2[nH]nc(-c3ccccc3O)c2C(c2ccc(F)cc2)N1CCO (stereo unspecified) -13.9%, COc1ccc(OC)c(NC(=O)Cc2c(C(=O)O)n(C)c3ccc(C)cc23)c1 -11.9%, CCOC(=O)c1c(C)sc(-c2c(-c3ccc(OC)c(F)c3)[nH]c3[nH]c(=O)[nH]c(=O)c23)c1O -2.77%, COC(=O)c1cnn(-c2ccc(C(=O)Nc3cc(OC)c(OC)c(OC)c3)cc2)c1N -16.1%, COc1ccc(-c2nc(SCC(=O)N3CCCCC3C)n[nH]2)cc1 (stereo unspecified) -27.4%, CCc1cccc(C)c1Nc1c(-c2cccc(O)c2)nc2nc(C)cc(C)n12 -29.1%, CCc1ccc(-n2c(=O)c3c(C)c(C(=O)N(C)C)sc3n(Cc3ccccc3C#N)c2=O)cc1 -1.34%, Cc1ccc(CN(Cc2ccco2)C(=O)c2ccc(Cl)cc2)o1 -35.3%, OCCN1CCN(CCCN2c3ccccc3C=Cc3ccccc32)CC1 -1.32%, C=CCNc1nc(NCC=C)nc(N2CCN(C(c3ccc(F)cc3)c3ccc(F)cc3)CC2)n1 -23.7%, COc1ccc(NC(=O)Cn2c(=O)n(Cc3ccc(C(=O)NCc4ccccc4Cl)cc3)c(=O)c3ccccc32)cc1 4.34%, COc1ccc(Cn2nnc3c(=O)[nH]c(C4CCN(C(=O)c5ccc(C)cc5)CC4)nc32)cc1OC -5.35%, CCN(CC)CCCNC(=O)CN1N=C(c2ccccc2)CCC1=O -14.9%, Cc1nn(CC(=O)N2CCN(c3cccc(C(F)(F)F)c3)CC2)c(=O)c2cccn12 8.01%, Cc1nn(C)c2c1c(C(F)(F)F)cc(=O)n2C(C)C(=O)NCc1ccccc1Cl (stereo unspecified) -12%, COC(=O)c1sccc1S(=O)(=O)N(CC(=O)NCc1ccc(F)cc1)c1ccc(Cl)cc1 -4.11%, COc1ccc(CNC(=O)c2ccc(CNS(=O)(=O)c3ccc(F)cc3)cc2)cc1 -0.433%, Cc1ccc(NC(=O)Cn2nnc(C(=O)NCc3cccs3)c2N)cc1Cl -1.64%, Cc1oc(-c2cccc(Cl)c2)nc1Cn1c(SCc2ccccc2F)nc2ccncc21 9.22%
